PubChem BioAssay AID902 (National Center for Advancing Translational Sciences (NCATS), 2007)
Among all 130,000 compounds or so, about 1,900 (1.5%) were called active. Inconclusive results, whose numbers are uncertain, are shown with a selection of clear calls. Calls follow the shape of the dose curve; as a rule, active = well fitted cell-killing curve with a large enough effect; inconclusive = small, poorly fitted or top-dose-only effect; inactive = no such curve, though single readings can be large or run the other way. Potencies of inconclusive entries are doubtful fits and often do not repeat.

Assay: qHTS Screen for Compounds that Selectively Target Cancer Cells with p53 Mutations: Cytotoxicity of p53ts Cells at the Nonpermissive Temperature; also: nearly all actives have a fitted effect of over 55% in size
Conditions: H1299-p53A138V viability at 39C, ATP luminescence, 24 h; activity change, negative = cell killing: at 46.1 µM (top of the series)
Text: NIH Chemical Genomics Center [NCGC] NIH Molecular Libraries Screening Centers Network [MLSCN] MLSCN Grant: 1 X01 MH079844-01 Assay Submitter (PI): Dr. SUN, YI, University of Michigan NCGC Assay Overview: Synthetic Lethal Screen for Compounds to Kill Cancer Cells with p53 Mutation. Tumor suppressor gene p53 serves as a major cellular barrier against tumorigenesis. […] The goal of this screening is to identify small molecule probes that selectively kill cancer cells with mutations in p53. This screening was carried out using two lines of H1299 lung cancer cells. The H1299-p53 A138V line express a temperature sensitive p53 mutant (p53ts) in which the mutant p53 protein (A138V) is in the mutant confirmation when grown at 39C (the nonpermissive temperature) and in the wild type conformation when grown at 32C (the permissive temperature). A H1299-neo line (p53 null) grown at both 39C and 32C were used as counter-screens to filter out false positive associated with temperature shifting. The small molecular compounds that selectively target mutant p53-containing cancer cells were selected as candidate probes for further study. A cytotoxicity assay based on the measurement of ATP contents in cells was used in this screen. Concentration-responses of all the compounds in the library collection were determined in qHTS using the cell lines and temperature conditions as above.
NCGC Assay Protocol Summary: Both the H1299-p53A138V and H1299-neo cell lines were provided by Dr.Yi Sun, a PI at the University Michigan. The cells were maintained and cultured at 37C. The resuspended frozen cells were used to plate the cells in the 1536-well assay plates at a density of 600 cells per well in 5 ul medium. The assay plates with the cells were incubated at 37C for 16 to 30 hours before the experiments. The library compounds in DMSO solution were added to the cells in assay plates and incubated 24 hours at 39C (for mutant p53 conformation) or 32C (for normal p53 conformation as control). An ATP_lite assay kit (PerkinElmer) was used to determine the cell viability. Tomaxifen (100uM) was used as the positive control for cell killing. Data were normalized to the controls for basal activity (DMSO only) and 100% killing (100uM tamoxifen). AC50 values were determined from concentration-response data modeled with the standard Hill equation. P53 assay protocol: 1. Reagent; 5 uL H1299-p53A138V or H1299-neo cell cells/well 2. Time; overnight; 37C incubation 3. Compounds; 23 nL; 5.9 nM to 46 uM 4. Controls; 23 nL; Tamoxifen 100 uM 5. Time; 24 hr; 39C incubation 6. Reagent; 3 uL; ATP_Lite reagent 7. Time; 20 min; Room Temperature 8. Detection; Luminescence; Viewlux plate reader Keywords: p53, synthetic lethal, cancer, cell viability, cytotoxicity, H1299 cell line, luminescence, MLSMR, MLSCN, NIH Roadmap, qHTS, NCGC
% is scaled to controls: 0 for no effect and ±100 for the full control effect; potency is read from the fitted curve at half-maximal effect; tags tell the direction and shape of the fitted curve.

| Compound | Potency | activity change, negative = cell killing |
| --- | --- | --- |
| CCc1ccc(NC(=O)c2cc(S(=O)(=O)NC3CCCC3)ccc2F)cc1 | inconclusive: 11.2 µM [cytotoxic, single point] | – |
| Cc1ccc(-n2nc3ccc(NC(=O)c4oc5ccccc5c4C)cc3n2)cc1 | inconclusive: 25.1 µM [cytotoxic, single point] | – |
| CCOC(=O)c1[nH]c2ccccc2c1NC(=O)c1ccccc1OCC | inconclusive: 20 µM [cytotoxic, partial curve, poor fit] | – |
| COC(=O)c1c(NC(=O)CN2CCOCC2)sc2c1CCC(C)C2 (configuration not stated) | inconclusive: 25.1 µM [cytotoxic, partial curve] | – |
| O=C(Nc1ccc2c(c1)CCCN2C(=O)c1cccs1)c1cccc(C(F)(F)F)c1 | inactive | – |
| CCCNC(=O)c1ccc2c(c1)N=C(C)c1c(C)ccc(C)c1S2 | inconclusive: 0.316 µM [cytotoxic, full curve, poor fit] | – |
| CCOC(=O)C1CCN(C(=O)c2cc3ccc4cccnc4c3[nH]2)CC1 | inactive | – |
| CCN(C(=O)c1noc2c1COc1ccc(C)cc1-2)c1cccc(C)c1 | inconclusive: 5.62 µM [cytotoxic, single point] | – |
| Clc1cccc(-n2ncc3c(NC4CCCCC4)ncnc32)c1 | active: 12.6 µM | – |
| CCOc1ccc(-c2nnc(SCC(=O)NC3CCCC3)nc2-c2ccc(OCC)c(OC)c2)cc1OC | inactive | – |
| COc1cccc(Nc2ncc3nc(-c4cccs4)c(=O)n(-c4ccccc4)c3n2)c1 | inactive | – |
| Cc1c(C(=O)Nc2ccc3c(c2)OCCO3)sc2nc(-c3ccccc3)cn12 | inconclusive: 20 µM [cytotoxic, single point] | – |
| CC(C)(C)OC(=O)N1CCC(c2c(C(=O)NCCN3CCC(Cc4ccccc4)CC3)cnn2-c2cccc(Cl)c2)CC1 | active: 20 µM | – |
| COc1ccc(Nc2ncnc3c2cnn3-c2ccc(C)cc2C)cc1 | inactive | – |
| COc1ccccc1-n1cnc2cc(C(=O)NCc3ccco3)ccc21 | inactive | – |
| Nc1c(C(=O)Nc2ccccc2Cl)c2ccccn2c1C(=O)c1ccc(Cl)cc1 | inactive | – |
| CCn1c(=O)c2cc(C(=O)N(CCCOC(C)C)Cc3ccco3)sc2c2ccccc21 | inconclusive: 20 µM [cytotoxic, single point] | – |
| CCOc1ccc(CN(CCC#N)C(=S)NC(=O)c2ccccc2)cc1 | inconclusive: 35.5 µM [cytotoxic, single point] | – |
| O=C(c1ccc(F)cc1)C(CN1CCOCC1)c1ccccc1 (configuration not stated) | inconclusive: 31.6 µM [cytotoxic, single point] | – |
| Cc1cccc(NC(=O)CSc2nc3c(oc4ccccc43)c(=O)n2Cc2ccco2)c1 | inconclusive: 3.98 µM [cytotoxic, full curve, poor fit] | – |
| Cc1cc(NS(=O)(=O)c2ccc3nc(-c4ccccc4)[nH]c3c2)ccc1Br | inconclusive: 31.6 µM [cytotoxic, single point] | – |
| CCC(=O)Nc1sc2c(c1C(=O)Nc1ccccc1C)CCC(C)C2 (configuration not stated) | inconclusive: 0.0158 µM [cytotoxic, full curve, poor fit] | – |
| O=C(COc1cccc(NC(=O)c2ccco2)c1)c1ccc(F)cc1 | inconclusive: 25.1 µM [cytotoxic, single point] | – |
| CC(C)(C)Cc1nc(-c2ccccn2)no1 | inactive | – |

| Compound | Potency | activity change, negative = cell killing |
| --- | --- | --- |
| CCn1c(=N)c(C(=O)NCc2cccnc2)cc2c(=O)n3cc(C)ccc3nc21 | inactive | – |
| Cc1ccccc1OCC(O)Cn1c(=N)n(CCN2CCOCC2)c2ccccc21 (configuration not stated) | inactive | – |
| Oc1ccc(Cl)cc1Sc1cc(Cl)ccc1O | – | inactive: -9.57% [at 9.22 µM] |
| CCS(=O)(=O)Nc1cc(-c2cn3ccc(C)cc3n2)ccc1C | active: 12.6 µM | – |
| Cc1nc(NCc2ccccc2)c2nc(-c3ccccc3)n(CC3CCN(C)CC3)c2n1 | inactive | – |
| Cc1cc(NC(c2nnc(-c3ccccc3)o2)c2ccccc2F)ccc1Br (configuration not stated) | inactive | – |
| Cc1ccc(-n2nc3cc(C)c(NC(=O)c4ccc(-c5ccccc5)o4)cc3n2)cc1 | inconclusive: 1.26 µM [cytotoxic, full curve, poor fit] | – |
| COc1cccc2sc(NC(=O)c3ccc4c(c3)OCCO4)nc12 | active: 5.01 µM | – |
| CCCc1ccc(-c2ccc(F)c(N)c2)nc1 | active: 7.94 µM | – |
| COc1cccc(-c2cncnc2NC2CCNCC2)c1 | inactive | – |
| Oc1ccc(-c2nc(-c3ccc(F)cc3)c(-c3ccncc3)[nH]2)cc1 | inactive | – |
| CC(C)(C)c1ccc(CSC2=Nc3ccccc3C3=NC(CC(=O)NCc4cccs4)C(=O)N23)cc1 (configuration not stated) | inconclusive: 31.6 µM [cytotoxic, single point] | – |
| O=C1O/C(=C\Br)CC[C@@H]1c1cccc2ccccc12 | active: 20 µM | – |
| CC(CC(=O)O)(CC(=O)O)c1ccccc1 | – | inactive: 9.36% [at 9.22 µM] |
| O=C(Nc1cc(Cl)ccc1Cl)c1cc(S(=O)(=O)NCCc2ccccc2)ccc1F | inconclusive: 15.8 µM [cytotoxic, partial curve] | – |
| CC1CCc2onc(C(=O)N3CCN(c4ccccc4)CC3)c2C1 (configuration not stated) | inconclusive: 10 µM [cytotoxic, partial curve, poor fit] | – |
| Cc1cccc(S(=O)(=O)Nc2cccc(-c3ccc(N4CCCCC4)nn3)c2)c1 | inconclusive: 2.82 µM [cytotoxic, full curve] | – |
| CCOc1cccc(-c2cc(C(=O)N/N=C/c3cccc(OC)c3O)[nH]n2)c1 | inconclusive: 0.501 µM [cytotoxic, full curve, poor fit] | – |
| CCN(CCNC(=O)C1CCN(Cc2nc(-c3ccc(Cl)cc3)oc2C)CC1)c1ccccc1 | inconclusive: 31.6 µM [cytotoxic, single point] | – |
| Cc1ccc(-c2nc3ccccc3[nH]2)cc1NC(=O)COc1ccccc1[N+](=O)[O-] | active: 7.94 µM | – |
| COc1ccc(-n2nc3c(N4CCC(C(=O)NCc5cccc(F)c5)CC4)nnc(C)c3c2C)cc1 | active: 5.01 µM | – |
| COc1ccc(C2C=C(c3ccc(F)cc3)Nc3nc(-c4ccc(Cl)cc4)nn32)cc1 (configuration not stated) | inconclusive: 31.6 µM [cytotoxic, single point] | – |
| O=C(O)c1ccc2cc(-c3ccc(O)c(C45CC6CC(CC(C6)C4)C5)c3)ccc2c1 | inconclusive: 25.1 µM [cytotoxic, single point] | – |
